Hit rate of the full screen: of about 150,000 compounds, about 540 (0.36%) showed an effect of 50% or more. The list shows a part of the results.

In this assay the test system is Plasmodium falciparum. Description: Primary screen in NF54 nanoGlo assay, in single point, at 2uM, 72h; a lower Z score goes with more inhibition. It is filed as functional, Erythrocyte. The following applies: timepoint 72 hour.
Turning to `CCCc1ccc(O[C@@H](C)c2nc(-c3nonc3N)no2)cc1`, the “% Inhibition” value is recorded as -13% and the Z score worked out at 1.72.

With `O=C([C@H]1CCc2nncn2C1)N1CCc2c(Cl)cc(F)cc2C1`, the “% Inhibition” value is on record as -3% and the Z score came to 0.62.

`O=C(c1ccc(Cl)s1)N1CC(Oc2nc3ccccc3s2)C1`: the “% Inhibition” value is listed as -12% and the Z score turned out to be 1.32.

Regarding `CCc1ccc(-c2c(-c3ccccc3)ncn2Cc2cc(O)nc(C)n2)nc1`, the “% Inhibition” value is -2% and the Z score was determined as 0.38.

For `Cc1nc(CCN2C(=O)NC(C)(C)C2=O)sc1C`, the “% Inhibition” value is 2% and the Z score is listed as -0.26.

Regarding `COc1cc2c(cc1CN1CCNC(=O)[C@@H]1Cc1ccccc1)OCO2`, the “% Inhibition” value is 8% and the Z score is -1.04.

In the case of `CC(C)n1ccc(CN2c3cc(Cl)ccc3CS2(=O)=O)n1`, the “% Inhibition” value was -1% and the Z score is listed as 0.17.

In the case of `O=C(CCn1cc(Cl)cn1)N1CCN(CC2CC2)[C@@H]2CS(=O)(=O)C[C@@H]21`, the “% Inhibition” value is reported as -12% and the Z score is 1.13.

With `C[C@@H](CNc1cccc(F)c1C#N)c1nccs1`, the “% Inhibition” value is reported as -6% and the Z score was determined as 0.82.

Take `O=C(N[C@H]1CC(=O)N(CCOc2ccccc2)C1)C1CCC1`: the “% Inhibition” value is -9% and the Z score turned out to be 1.81.

For the compound `CN(C)C(=O)[C@]12CCS(=O)(=O)N(C)[C@@H]1CCN(C(=O)c1nccc3ccccc13)C2`, the “% Inhibition” value worked out at 5% and the Z score is reported as -0.57.

Take `COCC(=O)Nc1cc(C(=O)N[C@H]2CCCc3ccccc32)c2c(c1)nc(-c1ccncc1)n2C`: the “% Inhibition” value is listed as -2% and the Z score is 0.23.

`COCCNC(=O)CCc1cn(-c2ccccc2)nc1-c1ccc2c(c1)OCO2`: the “% Inhibition” value was -10% and the Z score is given as 1.35.

Take `NC(=O)[C@@H]1CCCN1CCCc1ccccc1Br`: the “% Inhibition” value is given as -10% and the Z score came out at 1.04.

Turning to `Nc1cc(COC(=O)C2CCCCC2)ccn1`, the “% Inhibition” value amounted to 1% and the Z score is -0.22.

Turning to `Cn1cc([C@@H]2CS(=O)(=O)CCCN2C(=O)c2cnc(NC3CC3)s2)cn1`, the “% Inhibition” value is given as -13% and the Z score is 2.08.

For `CCC(C)(OC)c1noc(C2C[C@@H]3CC(=O)[C@H]2C3)n1` (some centres undefined), the “% Inhibition” value was -7% and the Z score was found to be 0.72.

In the case of `CC(O)CC1CCCCCN1C(=O)CCc1cnccn1` (centres undefined), the “% Inhibition” value is reported as -3% and the Z score amounted to 0.6.

In the case of `CC1(C)CN(c2ccnc(C(N)=O)c2)CCc2ccccc21`, the “% Inhibition” value is recorded as -18% and the Z score stood at 2.76.

Turning to `O=C(Nc1ccc(F)c(C2CC2)c1)N1CCC[C@@H]1Cn1ccnc1`, the “% Inhibition” value is given as -10% and the Z score amounted to 0.92.

Regarding `COC[C@H]1CCCN(CC(=O)Nc2nnc(C)s2)C1`, the “% Inhibition” value is -9% and the Z score worked out at 0.99.

`Cc1cc(=O)c(C(=O)N2CC[C@@]3(CCCN(C4CCCCC4)C3=O)C2)c[nH]1`: the “% Inhibition” value is -1% and the Z score worked out at 0.06.

For the compound `Cc1ccc(-c2ccc(C(=O)N(C)C)cc2)c(-n2cccn2)c1`, the “% Inhibition” value is on record as -4% and the Z score was 0.71.

Take `Cc1ncsc1C(=O)NC1CCOC1c1ccc(Cl)cc1` (centres undefined): the “% Inhibition” value is 2% and the Z score was -0.27.

Turning to `CCOC(=O)C1=CNS(=O)(=O)N=C1`, the “% Inhibition” value is reported as -11% and the Z score was 1.29.

For `CCS(=O)(=O)Oc1cc(CN(CC(C)C)C(=O)C(C)C)ccc1OC`, the “% Inhibition” value is -13% and the Z score is 1.27.

Take `CCN1C(=O)C2CN(C(=O)C(C)Oc3ccc(-c4ccccc4)cc3)CCN2C1=O` (centres undefined): the “% Inhibition” value is on record as -2% and the Z score was found to be 0.42.

With `COc1ccc(N2CCN(C(=O)CNc3ccccc3N3CCCCC3)CC2)cc1`, the “% Inhibition” value is -12% and the Z score was determined as 2.27.

Turning to `Cc1occc1-c1cc(NC(=O)c2ccc(F)cc2)n(CCO)n1`, the “% Inhibition” value came out at 0% and the Z score is given as 0.05.

Consider `O=C(Cc1ccn(-c2ccccc2)n1)NC[C@@H]1CCC[C@H]1O`, for which the “% Inhibition” value is recorded as -13% and the Z score came to 2.43.

For the compound `Cc1cc(F)c(CC(=O)OCc2nc(C)c(C)o2)cc1F`, the “% Inhibition” value was determined as 5% and the Z score is on record as -1.04.

For the compound `Oc1c(CN2CCOCC2)c(-c2ccccc2)nc2ccc(Cl)cc12`, the “% Inhibition” value is listed as -6% and the Z score was determined as 0.85.

Turning to `CN(Cc1cscn1)C(=O)c1nn(Cc2ccccc2)c2c1CN(C(=O)c1cscn1)CC2`, the “% Inhibition” value is listed as -11% and the Z score was determined as 1.4.

In the case of `CN(Cc1ccco1)S(=O)(=O)c1ccc2c(c1)OC[C@@H](C(=O)N1CCCCC1)O2`, the “% Inhibition” value is -18% and the Z score came to 3.03.

With `CC1CCC2=NN(C(=O)c3cccnc3)C(O)(C(F)(F)F)C2C1` (centres undefined), the “% Inhibition” value is recorded as -40% and the Z score was 4.74.

For `CCn1nc(C)c(CNc2nnc(C(F)(F)F)s2)c1C`, the “% Inhibition” value is on record as -15% and the Z score worked out at 2.77.

In the case of `CC[C@@H](C(N)=O)N1CC(n2cccn2)C1`, the “% Inhibition” value is on record as -3% and the Z score was 0.48.

Regarding `COc1ccc(NC(=O)C2C3CCC(CC3)C2C(=O)O)c(OC)c1` (centres undefined), the “% Inhibition” value is -9% and the Z score came out at 1.83.

In the case of `CN1[C@@H](CO)C[C@@H](CNC(=O)c2cnn[nH]2)[C@H]1c1ccccc1F`, the “% Inhibition” value is -6% and the Z score was 0.88.

In the case of `Cc1ccnc(-n2nccc2NC(=O)N[C@H]2CCCOc3c(F)cccc32)c1`, the “% Inhibition” value was -17% and the Z score worked out at 1.7.

For the compound `CC1(C)C[C@H](NCC(=O)Nc2sccc2C#N)C(C)(C)O1`, the “% Inhibition” value is given as -4% and the Z score amounted to 0.49.

As to `Cc1ccoc1C(=O)N1CCC(Oc2ccc3ncccc3c2)(C(=O)O)CC1`, the “% Inhibition” value is -14% and the Z score is on record as 2.32.

What is called % Inhibition is the drop in the measured response relative to a control, in per cent.
